In PubChem BioAssay AID1345082 (National Center for Advancing Translational Sciences (NCATS), 2018):
Among all 94,000 compounds or so, about 4,000 (4.3%) were called active. This list was built around the results that the source calls inconclusive (neither active nor inactive); the mix of calls is not that of the screen. The call rests on the fitted dose curve; in most records, active means well fitted inhibition curve with a large enough effect; inconclusive means small, poorly fitted or top-dose-only effect; inactive means no such curve, though single readings can be large or run the other way. Where the call is inconclusive, the potency comes from a doubtful curve fit.

assay: Cytotoxic Profiling in NIH 3T3 Cell Line of Diverse Libraries Using Quantitative High-Throughput Screening; details: NIH 3T3 viability, CellTiter-Glo ATP luminescence, 48-72 h; activity change, negative = cytotoxicity: at 96.7 µM (top of the series) unless noted; series mostly up to 96.7 µM; further: nearly all actives have a fitted effect of over 55% in size
Outline: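 NIH 3T3 cells at 400 cells/well received 23 nL of compound by pintool and were incubated 48 or 72 h at 37 °C. Viability was read as ATP-coupled CellTiter-Glo luminescence.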
On the % scale 0 is the no-effect control and ±100 the full control effect; potency means the concentration at half of the fitted maximal effect; tags describe the fitted curve by direction and shape.

SMILES	Potency	activity change, negative = cytotoxicity	outcome
COc1ccccc1Nc1ncc2c(n1)CN(C(=O)C1CCC(OC)CC1)CCN2 (stereo unspecified)	inconclusive: 79.4 µM [inhibitor, partial curve, poor fit]	–	–
C#CCNC(=O)c1nc2cccnc2n(-c2ccccc2OC)c1=O	–	inactive: -16.1% [at 138 µM]	–
CN1CC(=O)N(C2CCNC2)Cc2c(NC3CCOC3)ncnc21 (stereo unspecified)	–	inactive: 4.39%	–
CNC(=O)c1cc(C)nc2onc(C3CCCN3C(=O)c3ccccc3C)c12 (stereo unspecified)	–	inactive: -20% [at 138 µM]	–
O=C1[C@H]2CN(Cc3cc(F)cc(F)c3)C[C@H]2C(=O)N1CCc1ccccc1	inconclusive: 44.7 µM [inhibitor, partial curve, poor fit]	–	–
COCCn1c(=O)c2c(n1Cc1ccccc1)CN(Cc1ccc3c(c1)CCO3)CC2	inconclusive: 50.1 µM [inhibitor, partial curve, poor fit]	–	–
CCc1nc2c(c(-c3ccc(Cl)cc3)n1)CN(Cc1ccc(OC)cc1)CC2	active: 35.5 µM	–	–
O=C(O)COc1ccc(-c2nccc3c2C(=O)N(Cc2cccc(C(F)(F)F)c2)CC(COc2ccccc2)O3)cc1 (stereo unspecified)	inconclusive: 70.8 µM [inhibitor, single point]	–	–
CN1CC(=O)N(c2ccccc2)Cc2c(NCc3cccc(C(F)(F)F)c3)ncnc21	inconclusive: 44.7 µM [inhibitor, partial curve, poor fit]	–	–
COc1cccc(OCc2nc([C@@H]3C[C@H]3c3ccccc3)n(CCO)n2)c1	inconclusive: 50.1 µM [inhibitor, partial curve, poor fit]	–	–
COc1cc(F)ccc1-c1ccc2c(n1)c(=O)ncn2Cc1ccccc1	inconclusive: 89.1 µM [inhibitor, partial curve, poor fit]	–	–
CC1(c2ccccc2)N(Cc2ncccn2)C(=O)OC12CCN(Cc1cccc(OC(F)(F)F)c1)CC2 (stereo unspecified)	active: 39.8 µM	–	–
COc1cccc(CNC(=O)c2ccc3nc(-c4ccccn4)oc3c2)c1	inconclusive: 39.8 µM [inhibitor, partial curve, poor fit]	–	–
COc1cccc(-c2cc(C(=O)N[C@@H](C)c3ncccc3C)[nH]n2)c1	inconclusive: 50.1 µM [inhibitor, partial curve, poor fit]	–	–
O=C(C1CCCN1C(=O)C1CC1)N1CCC(N2CCOCC2=O)CC1 (stereo unspecified)	–	inactive: -1.83%	–
O=C1CC(c2ccccc2)N(Cc2ccncc2)CCCN(C(=O)Cc2cccnc2)CCN1 (stereo unspecified)	–	inactive: -8.28%	–
COc1ccccc1Cn1c(=O)c(C(=O)N2CCN(C(=O)c3cccc(Cl)c3)CC2)nc2cccnc21	–	inactive: -12.2%	–
COc1ccc(F)cc1-c1cccc(COc2ccc3c(cnn3CC[S+](C)(=O)[O-])c2)c1	inconclusive: 15.8 µM [inhibitor, full curve]	–	–
N#Cc1cccnc1-c1ccc(C(=O)N2CCC(NC(=O)Nc3ccccc3)CC2)cc1	inconclusive: 44.7 µM [inhibitor, partial curve, poor fit]	–	–
COCC(=O)N1Cc2ccccc2OC2(CCN(C(C)C)CC2)C1	–	inactive: -24.9%	–
COc1cccc(C(=O)N2CCC(N3C[C@H](O)C[C@H]3C(=O)N3CCC(C)CC3)CC2)c1	–	inactive: -21.2%	–

SMILES	Potency	activity change, negative = cytotoxicity	outcome
O=C1OCC2(CCN(Cc3ccn[nH]3)C2)N1Cc1ccccc1 (stereo unspecified)	inconclusive: 112 µM [inhibitor, single point]	–	–
CC(C)NC(=O)c1cc(C(C)(C)C)nc2c1cnn2C	inconclusive: 100 µM [inhibitor, partial curve, poor fit]	–	–
Cc1ccc(Nc2ccnc(N3CCC(C(=O)NCc4cccs4)CC3)n2)cc1	active: 22.4 µM	–	–
CNC(=O)c1ccc2nc(-c3cccc(C)n3)oc2c1	inconclusive: 35.5 µM [inhibitor, partial curve, poor fit]	–	–
O=C(Nc1ccc2ncnc(N3CCCCC3)c2c1)c1ccc(F)cc1	inconclusive: 44.7 µM [inhibitor, partial curve, poor fit]	–	–
COc1cccc(N2C(=O)NC(=NC3CCCC3)C23CCN(Cc2ccc(F)cc2)C3)c1 (stereo unspecified)	inconclusive: 70.8 µM [inhibitor, single point]	–	–
Cc1nnc(-c2cc(-c3ccsc3)ccn2)n1Cc1ccccc1	inconclusive: 50.1 µM [inhibitor, partial curve, poor fit]	–	–
O=C(c1ccccc1F)N1CCC2(C1)C(=NC1CCCC1)NC(=O)N2c1cc(F)cc(F)c1 (stereo unspecified)	inconclusive: 50.1 µM [inhibitor, single point]	–	–
CC(C)CN1C(=O)C(C)(C)[S+](=O)([O-])[C@H]2CN(c3ccc(Oc4ccccc4)cc3)C[C@@H]21	inconclusive: 31.6 µM [inhibitor, partial curve, poor fit]	–	–
O=C(Nc1cc(F)c(F)c(F)c1)N1CCC(Oc2ncccc2C(=O)N2CCCCC2)C1 (stereo unspecified)	inconclusive: 70.8 µM [inhibitor, single point]	–	–
COc1ccc(CN(C)C(C)c2cccs2)cc1 (stereo unspecified)	inconclusive: 89.1 µM [inhibitor, partial curve, poor fit]	–	–
O=C1NCCCCCCN(C(=O)c2ccoc2)[C@H]2C[C@H](c3nc(-c4cccnc4)no3)C[C@@H]12	inconclusive: 44.7 µM [inhibitor, partial curve, poor fit]	–	–
Cc1ccc(CN2CCCN(Cc3ccncc3)C(c3ccccc3)CC(=O)NCC2)o1 (stereo unspecified)	inconclusive: 44.7 µM [inhibitor, partial curve, poor fit]	–	–
COc1cccc(CCC(=O)N2CCC3(CC2)NC(=O)N(c2ccccc2)N3)c1	inconclusive: 28.2 µM [inhibitor, partial curve]	–	–
CCn1cc(CN2CCN(C(=O)c3cccs3)CC2)ccc1=O	inconclusive: 50.1 µM [inhibitor, partial curve, poor fit]	–	–
CCN1Cc2cc(F)ccc2N(CC(O)Cc2ccccc2)CCC1=O (stereo unspecified)	inconclusive: 44.7 µM [inhibitor, partial curve, poor fit]	–	–
CC(=O)N1CC2(Cc3ccccc31)CN(C(=O)c1ccc(C)cc1)C2	inconclusive: 44.7 µM [inhibitor, partial curve, poor fit]	–	–
CC(=O)N(C1CC1)C1CCOC2(CCN(C(=O)CCc3nc4ccccc4s3)CC2)C1 (stereo unspecified)	–	inactive: -14.8%	–
CCOC(=O)[C@H]1[C@@H](O)C(=O)N(Cc2ccccc2)C12CCN(C(=O)C1CC1)CC2	inconclusive: 56.2 µM [inhibitor, partial curve, poor fit]	–	–
Cc1onc(-c2cnn(C)c2NCc2ccc(C#N)cc2)c1C(=O)NC1CCOCC1	inconclusive: 56.2 µM [inhibitor, partial curve, poor fit]	–	–
O=C(c1ccc(Cl)cc1)N1CCn2c(nn(-c3ccc([N+](=O)[O-])cc3)c2=O)C1	–	–	inactive

SMILES	Potency	activity change, negative = cytotoxicity	outcome
Cc1ccc(C(=O)N2CCCOCCNC(=O)CC2)s1	inconclusive: 31.6 µM [inhibitor, full curve]	–	–
COC(=O)NCCNC(=O)c1ccc(-c2cncnc2)cc1	–	inactive: -10.4% [at 138 µM]	–
CCOCCNC(=O)c1cc(-c2cccc(C(F)(F)F)c2)c2cccn2n1	inconclusive: 14.1 µM [inhibitor, partial curve, poor fit]	–	–
COCC(=O)NC[C@H]1O[C@@H](CC(=O)N2CCN(c3ccccc3OC)CC2)[C@H](O)[C@@H]1O	–	inactive: 0.222%	–
O=c1c2nc(-c3ccsc3)ccc2ncn1Cc1ccccc1	inconclusive: 44.7 µM [inhibitor, partial curve, poor fit]	–	–
COc1ccc(-c2cc(CC3(NCc4ccccc4O)COC3)no2)cc1	inconclusive: 100 µM [inhibitor, single point]	–	–
CSCC[C@@H]1NC(=O)c2cc(NC(=O)c3ccc4ccn(C)c4c3)ccc2NC1=O	–	inactive: -8.54%	–
COc1ccccc1Nc1ccnc(N2CCCC(C(=O)NCCCc3ccccc3)C2)n1 (stereo unspecified)	inconclusive: 14.1 µM [inhibitor, full curve]	–	–
Fc1ccc(CN2Cc3[nH]cnc3C[C@H]2c2nc(-c3ccc(F)c(Cl)c3)no2)cc1	active: 89.1 µM	–	–
O=C1c2cnc(-c3cccc(C(F)(F)F)c3)nc2OCCN1Cc1ccccc1	inconclusive: 56.2 µM [inhibitor, partial curve, poor fit]	–	–
COc1ccc(CN2CCCCC23Cc2ccccc2CNC3=O)c(OC)n1 (stereo unspecified)	inconclusive: 50.1 µM [inhibitor, partial curve, poor fit]	–	–
CN1CCC2(C1)CN(CC1CC1)c1ccc(C(=O)NC3CCCCC3)cc12 (stereo unspecified)	active: 79.4 µM	–	–
COc1ccc(CN2CCNc3cnc(Oc4ccccc4)cc3C2)cc1O	inconclusive: 50.1 µM [inhibitor, partial curve, poor fit]	–	–
COc1ccc(-c2nc(C(C)C)nc3c2CN([S+](=O)([O-])c2cccc(OC)c2)CC3)cc1	inconclusive: 44.7 µM [inhibitor, partial curve, poor fit]	–	–
COC(=O)[C@@H]1Cc2ncn(Cc3ccc(Cl)cc3)c2CN1Cc1ccc(NC(C)=O)cc1	inconclusive: 50.1 µM [inhibitor, partial curve, poor fit]	–	–
O=C(NCc1ccc(OC(F)(F)F)cc1)N1CCCC(Cn2cnc3cccnc32)C1 (stereo unspecified)	inconclusive: 50.1 µM [inhibitor, partial curve, poor fit]	–	–
CCOc1cccc(CNC(=O)[C@H]2CCC[C@H]2NC(=O)c2cnc(C)cn2)c1	–	inactive: 1.54%	–
COc1ccc(NC(=O)Cn2c(-c3ccc(Cl)cc3)nc(C)cc2=O)cc1	inconclusive: 50.1 µM [inhibitor, partial curve, poor fit]	–	–
O=C(NCCn1cccc1-c1nc(-c2ccc3c(c2)OCO3)no1)c1ccc(F)cc1	inconclusive: 15.8 µM [inhibitor, full curve, poor fit]	–	–
